In PubChem BioAssay (Tox21):
Values joined by “and” are separate entries in the source; they are usually repeats but may differ in a detail not shown here. Equal entries are not always repeated. This list was built around the results that the source calls inconclusive (neither active nor inactive); the mix of calls is not that of the screen. A potency beside an inconclusive call is a rough fit, not a confirmed value. Active and inactive are the calls of the source. Calls follow the shape of the dose curve; as a rule, active = well fitted inhibition curve with a large enough effect in the signal ratio in the repeat runs (not every such curve was filed as active); inconclusive = weak or mixed curves, or effect the other way; inactive = no such curve, though single readings can be large or run the other way; the % refers to the signal ratio.

What follows are compounds tested against Glucocorticoid receptor (Homo sapiens) (UniProt P04150) (assay: qHTS assay to identify small molecule antagonists of the glucocorticoid receptor (GR) signaling pathway (AID 720692)). Conditions: GR-bla HeLa, beta-lactamase FRET ratio, dexamethasone-stimulated, 18 h; activity change, negative = inhibition: at 58.5 µM (top of the series) unless noted.
Outline: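 Cells plated, rested 4 h at 37 C/5% CO2; compounds in DMSO pin-transferred; dexamethasone added to 5 nM final; 18 h at 37 C; B/G FRET substrate added, 2 h room temperature; fluorescence measured.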
% is scaled to controls: 0 for no effect and ±100 for the full control effect; potency is read from the fitted curve at half-maximal effect; tags tell the direction and shape of the fitted curve or compound fluorescence and quenching.

Sequence of UniProt P04150 (P04150 whole entry, looked up): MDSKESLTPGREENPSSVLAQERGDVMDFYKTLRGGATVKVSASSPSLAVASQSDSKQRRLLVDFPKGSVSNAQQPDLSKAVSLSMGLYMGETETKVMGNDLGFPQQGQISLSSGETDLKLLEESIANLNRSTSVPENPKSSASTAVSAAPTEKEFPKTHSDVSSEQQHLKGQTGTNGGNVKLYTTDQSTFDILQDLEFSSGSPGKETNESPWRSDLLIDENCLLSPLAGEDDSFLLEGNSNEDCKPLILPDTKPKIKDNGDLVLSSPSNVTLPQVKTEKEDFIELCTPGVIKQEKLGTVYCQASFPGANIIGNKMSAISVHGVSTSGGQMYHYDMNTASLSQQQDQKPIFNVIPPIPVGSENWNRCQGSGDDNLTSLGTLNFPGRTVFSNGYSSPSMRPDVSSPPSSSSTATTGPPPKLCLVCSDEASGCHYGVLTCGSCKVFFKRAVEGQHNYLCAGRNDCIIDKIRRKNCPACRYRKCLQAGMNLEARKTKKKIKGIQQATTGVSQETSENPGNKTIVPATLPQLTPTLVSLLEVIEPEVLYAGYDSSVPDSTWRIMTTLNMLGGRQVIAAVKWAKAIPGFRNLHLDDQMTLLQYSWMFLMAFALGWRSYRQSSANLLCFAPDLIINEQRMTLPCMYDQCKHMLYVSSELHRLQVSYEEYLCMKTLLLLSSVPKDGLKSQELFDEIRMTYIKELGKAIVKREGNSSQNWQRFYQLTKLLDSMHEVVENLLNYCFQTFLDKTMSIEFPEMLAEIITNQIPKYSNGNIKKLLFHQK

| SMILES | activity change, negative = inhibition | Potency |
| --- | --- | --- |
| C[C@]12CCC(=O)C=C1CC[C@@H]1[C@@H]2[C@@H](O)C[C@@]2(C)[C@H]1CC[C@]2(O)C(=O)COC(=O)CCC(=O)O | inconclusive: 13.8% |  |
| CCCCCCCCCCC[C@@H](C[C@@H]1OC(=O)[C@H]1CCCCCC)OC(=O)[C@H](CC(C)C)NC=O |  | inconclusive: 0.301 µM [inhibitor, full curve] |
| CCC1OCC(COc2ccc(Oc3ccccc3)cc2)O1 (centres undefined) |  | inconclusive: 61.6 µM [activator, partial curve, poor fit] |
| CCOC(=O)C1=C[C@]2(CC)CCCN3CCc4c(n1c1ccccc41)[C@@H]32 |  | inconclusive: 12 µM [fluorescent, partial curve, poor fit] and inactive |
| CCCC(=O)OC[C@@H](OC(=O)CCC)[C@@H](OC(=O)CCC)[C@H](Cn1c2nc(=O)[nH]c(=O)c-2nc2cc(C)c(C)cc21)OC(=O)CCC |  | inconclusive: 26.8 µM |
| Cc1c(C)c2c(c(C)c1OC(=O)CCC(=O)OCCO)CC[C@@](C)(CCC[C@H](C)CCC[C@H](C)CCCC(C)C)O2 |  | active: 19 µM |
| Cc1cc(=O)oc2cc(O)cc(O)c12 | inconclusive: -30.8% [at 78.9 µM] |  |
| CN1CCN(C2Cc3ccccc3Sc3ccc(Cl)cc32)CC1 (centres undefined) |  | inconclusive: 26.8 µM [cytotoxic, single point] |
| CCc1nn(C2CCCCC2)c2cc(C3(C#N)CCC(C(=O)O)CC3)ccc12 (centres undefined) |  | inconclusive: 19.5 µM [inhibitor, full curve] |
| COC(=O)[C@H]1[C@H]2C[C@@H]3c4[nH]c5cc(OC)ccc5c4CCN3C[C@H]2C[C@@H](OC(=O)c2cc(OC)c(OC)c(OC)c2)[C@@H]1OC | inconclusive: -25.5% and inconclusive: -28.7% | inconclusive: 44.9 µM [inhibitor] |
| Nc1nc(N)c2nc(CNc3ccc(C(=O)N[C@@H](CCC(=O)O)C(=O)O)cc3)cnc2n1 |  | inconclusive: 57.5 µM [activator] |
| O=S(=O)(O)c1ccc(Nc2nc(Nc3ccc(/C=C/c4ccc(Nc5nc(Nc6ccc(S(=O)(=O)O)cc6)nc(N(CCO)CCO)n5)cc4S(=O)(=O)O)c(S(=O)(=O)O)c3)nc(N(CCO)CCO)n2)cc1 | inconclusive: 43.2% |  |
| CCOC(=O)/C=C(C)/C=C/C=C(C)/C=C/c1c(C)cc(OC)c(C)c1C | inactive: -19.1% |  |
| Cc1cccc2c1cc1ccc3cccc4ccc2c1c34 |  | inconclusive: 3.98 µM [activator, full curve] |
| C=CCOC(=O)/C=C\C(=O)OCC=C | inconclusive: 23.7% [at 78.9 µM] |  |
| CCCCc1cc2ccccc2c(OCCN(C)C)n1 |  | inconclusive: 10.2 µM [activator] |
| CCOC(=O)c1c(N)sc2c1CCN(Cc1ccccc1)C2 | inconclusive: 10% |  |
| O=S(=O)(O)c1ccccc1/C=C/c1ccc(-c2ccc(/C=C/c3ccccc3S(=O)(=O)O)cc2)cc1 |  | inconclusive: 7.87 µM [activator] |
